{"source": "paper PMC12136788", "binders": {"B1": {"name": "chr13:103053924:103053925:-_ENSG00000102466_ENST00000376131|hu_hu|FALSE|FALSE (ssRNA)", "RNA": "GGGAGUUCUACAGUCCGACGAUCCAUAUGCGUUCCUUUGCUGAAAAUGUUCCAAAGAAACCACAUUGAUUUGGGCGAAAAGCAAUCCAGCAGCUUAGACACCCUGAGAAAGAAGAGAUCCUUGUGGUUGCAUAAUAAUAAUUUCAACAGAGGAUUGAGCAUCA"}, "B2": {"name": "chr7:34935884:34935885:-_ENSMUSG00000052997_ENSMUST00000102746|mus_hu|FALSE|FALSE (ssRNA)", "RNA": "GGGAGUUCUACAGUCCGACGAUCUAAAAUCUUCAAUCCUUCCAAUACUAUCAACCCAGCAAUUACUGCAUUAGUAGUAGCAAUAGCAGGAAUAAUGUUCCCUGCCAUUGAUUUGAUAUCAAAUCUACUCUUCAUAUUCAUACUCAACAGAGGAUUGAGCAUCA"}, "B3": {"name": "chr8:42417948:42417949:+_ENSMUSG00000031592_ENSMUST00000045218|mus_mus|FALSE|FALSE (ssRNA)", "RNA": "GGGAGUUCUACAGUCCGACGAUCUUCUAGUUACUAACAAUGUCUGAACUGUGUAUACAGUCUGAGUUAUUAACAUGUUCUAAGACCACUGAGAUUCAUCUGCUUUAUUCGCACACAAGAGCAGGAACUACAAGAACAUCAGACCAACAGAGGAUUGAGCAUCA"}, "B4": {"name": "54640594_54640714_1659_3pUTR_ENSMUSG00000031134_ENSMUST00000098470|mouse|control|control (ssRNA)", "RNA": "GGGAGUUCUACAGUCCGACGAUCAUGGCAACACUAUAAAUUGUAUAUAUACAACAUUUAAAUCUGAAUUUACAGAAUUCUUUGUAUUAAAAGUUCACUUUCUCAACUGGGAAGUUUUAAACUCUACCAUUGCUGGCCAUAAGACAACAGAGGAUUGAGCAUCA"}, "B5": {"name": "chr5:134670393:134670394:-_ENSG00000113648_ENST00000304332|hu_hu|motif|central (ssRNA)", "RNA": "GGGAGUUCUACAGUCCGACGAUCUAAAAGACGCUGUUCUCCCCACUGCUGUGCGUCAAUCAGGGUUUCAUUAAAAUAAAACGGUAAAAUCUCCUAGGUUACACUAAGUCAGACACGGUCUGGAACACAGUGCUUAACAACAGUCAACAGAGGAUUGAGCAUCA"}, "B6": {"name": "105363258_105363378_1933_CDS_ENSG00000107957_ENST00000369774|human|control|control (ssRNA)", "RNA": "GGGAGUUCUACAGUCCGACGAUCGCUCAGCUCAGGCUCUGAGUCAAAGCCGAAUGCAGGGAUGUCAUACUCAGGCUCCUCAUACUUGAGCUUCCGCGGGGAGUCCUGGCUCUCACUGGCCCCCGUAGGGCCCUCCUCGGCCUCCAACAGAGGAUUGAGCAUCA"}, "B7": {"name": "chr1:33855670:33855671:-_ENSMUSG00000042197_ENSMUST00000044455|mus_mus|FALSE|FALSE (ssRNA)", "RNA": "GGGAGUUCUACAGUCCGACGAUCAUUAAGAAGGAGUACAUUUAAAUAGUGCAAUUGUACAGGUGAUAAAGGUAACAAACUAAGAGUAAAUCACUGUACAAACGUUACAUAAAUACCACAUCAAAGGCUAGGUCUUAAACGUAACAACAGAGGAUUGAGCAUCA"}, "B8": {"name": "10704985_10707675_999_CDS_ENSG00000111845_ENST00000379568|human|control|control (ssRNA)", "RNA": "GGGAGUUCUACAGUCCGACGAUCAAUUUCAAAACUGAACAUGUCCUUUACCCUGUUUUCAUGAGCUUUAAAUUCGCAGAGGCACACUAGUGAAUCACAGUCAAAAAACCUUAUAACUUCUUCAUCUCCAGCCACUGCAAGGACCAACAGAGGAUUGAGCAUCA"}, "B9": {"name": "chr7:149068622:149068623:-_ENSMUSG00000025139_ENSMUST00000001950|mus_hu|mus_mus_mus_hu_False|48_78 (ssRNA)", "RNA": "GGGAGUUCUACAGUCCGACGAUCGUGAGGCCUCUGAGUGUGGCUUGUGGUCUGUCCUGUCUGCAGUUUGUUAAUAUCACGGAACAUACCACUUAAGACGUUCCAGUCCCGCCUGACACCUUCAUUCCCAAUGGAGAAGAAAUCCAACAGAGGAUUGAGCAUCA"}, "B10": {"name": "chr7:129668796:129668797:-_ENSG00000091732_ENST00000358303|hu_hu|FALSE|FALSE (ssRNA)", "RNA": "GGGAGUUCUACAGUCCGACGAUCGGAAGGAAGCUGGAGGUCCAAGUGACAAAGGCUUUGAAAACGAUCUAGGAAUUCACUAACAAGAAUAGCAGGCUCAUCCAGGGGCAACAUCCCAAAUCGGUCUGGGGAUGGGCUGUCUGGCAACAGAGGAUUGAGCAUCA"}, "B11": {"name": "chr1:29344824:29344825:+_ENSG00000159023_ENST00000356093|hu_hu|FALSE|FALSE (ssRNA)", "RNA": "GGGAGUUCUACAGUCCGACGAUCCACGCCAUGGAGUUCUGGGUCGUAGUCUCCCAGUUCAGACUGGAUGGUGUAAGAACCUAAUAAUGCUAAGGUUGCAAAGGAACAGGGCAGACGUCCUGCAACUAUGUCCUGCCGAAGCUGCAACAGAGGAUUGAGCAUCA"}, "B12": {"name": "80228646_80228766_340_3pUTR_ENSG00000135338_ENST00000369846|human|control|control (ssRNA)", "RNA": "GGGAGUUCUACAGUCCGACGAUCCAGAUUAUUUUCUCCAGAGGAGACUAUGACAAUACUGAAAAACAUUUUCACAGUCUUCAGAUCCUGAUAAUAUUCAUUUCUGUGCAAUCUAUUUUCUCCACAAUGUAUUUGUAGACCACACAACAGAGGAUUGAGCAUCA"}, "B13": {"name": "chr7:141438946:141438947:+_ENSG00000106028_ENST00000265304|hu_mus|hu_hu_hu_mus_True|28_78 (ssRNA)", "RNA": "GGGAGUUCUACAGUCCGACGAUCGACGAAAUACCUGUAACACAGGUCUUCGAAACAUUCUAUUUUCUUUUCUUACAACCUAAUCUUUAGGCUUUUCCUAAAGGAAAAACCCGAGCAAGAAAAAUGAUAAAUCAAGAAACUACACAACAGAGGAUUGAGCAUCA"}, "B14": {"name": "chr12:8244378:8244379:+_ENSG00000089818_ENST00000339754|hu_mus|FALSE|FALSE (ssRNA)", "RNA": "GGGAGUUCUACAGUCCGACGAUCUUGCAGGGAAACAUUAAAGUCGAAGGCAUCUCCCCGAUCCGUGAAGCCGAUGCCAAUAAACGCGCUGCGCCCGGUUCCAUCCUGGAUCCUGAUCACAAAGUAGCGGCUGGAGUCUGUCACCAACAGAGGAUUGAGCAUCA"}, "B15": {"name": "chr3:47957716:47957717:-_ENSG00000047849_ENST00000395734|hu_mus|FALSE|FALSE (ssRNA)", "RNA": "GGGAGUUCUACAGUCCGACGAUCGUCCUUGACUGAGGUUACCUCUUCUUCUGAAAGUGGAGUCACAUUGUUAAACUCAGCCACCUUUGUUUCUGGAAGUAUAACCACGUCCUUGCCCAGAGUCACUUCUGAUUCUGGGAGUGGCAACAGAGGAUUGAGCAUCA"}, "B16": {"name": "chr1:109605286:109605287:-_ENSG00000197780_ENST00000461096|hu_mus|hu_hu_hu_mus_True|28_68 (ssRNA)", "RNA": "GGGAGUUCUACAGUCCGACGAUCAAGUUUCAGAGUAACAUUCAGUAACCUCUUUAAAUGCAAUUAUCCUUACUUUAAGCUAAGCAGAAUAAUAAUUUAAUACCGUAAGUAAAUACAACACAAAGCCUGAACCGCGAAAAUGGUCAACAGAGGAUUGAGCAUCA"}, "B17": {"name": "chr19:58870598:58870599:-_ENSMUSG00000025092_ENSMUST00000066285|mus_hu|FALSE|FALSE (ssRNA)", "RNA": "GGGAGUUCUACAGUCCGACGAUCAUCUUUGACUAAUAAUGCAUUCUGACUCCUGUUUACAUUGGUGCAUGCGAUUCUUUGCUACCCUGGCAAUUAACCAGACCUGGACUCUAAAAGCUAAACUUGGUCUAAAUAACAUUCUAACAACAGAGGAUUGAGCAUCA"}, "B18": {"name": "chr5:128440902:128440903:+_ENSG00000066583_ENST00000173527|hu_mus|hu_hu_hu_mus_True|98_98 (ssRNA)", "RNA": "GGGAGUUCUACAGUCCGACGAUCUUGAACGGUGCUGCCAAGACCUUUGGGGUAUUGUUCCGUUAUGAUAACUGGAAUCCCUAAGAUCCGAGCUCCUUGCAACAGUCUCUGUCCCACACUAAUGAUGUCCCCAAAGUAUUUGAUCAACAGAGGAUUGAGCAUCA"}, "B19": {"name": "chr17:87833181:87833182:-_ENSMUSG00000036438_ENSMUST00000040440|perfect_dup|FALSE|FALSE (ssRNA)", "RNA": "GGGAGUUCUACAGUCCGACGAUCCGGGCUUAGAUAUAGCCAGAGUAAGCCACAUGCAACAUGUUACUUCAUCAAUUUUCUAAAAUAAGGUUUAAGGACAAUGACAGUAAGAUAAGGGAAGAAAACAUGGAGGAAUGAAGUCCUCAACAGAGGAUUGAGCAUCA"}, "B20": {"name": "151797923_151800233_626_CDS_ENSG00000178234_ENST00000430044|human|control|control (ssRNA)", "RNA": "GGGAGUUCUACAGUCCGACGAUCAGCUGGCAGGUCAGGUGGGUAGAACUUUUCUUUACAUGCUGCAUUCCUUGUGUCUGGCACAUCUCUGUGGUAGCCCAAGCGGUCACUGAUAAGCAUAUUAAAAGCAUGUUUCUGAUAGCCCAACAGAGGAUUGAGCAUCA"}, "B21": {"name": "chr1:94914716:94914717:-_ENSMUSG00000014602_ENSMUST00000171796|mus_mus|motif|central (ssRNA)", "RNA": "GGGAGUUCUACAGUCCGACGAUCAAACAGAACACAGUCUUAUAGUUAAUGUCUCAGAGGACUGUUUCAACGCCACGGACGGAUGUAUAUUAAUUAUAAGUCUGUCUAUGCUUAAAAAAAUAUUAGAACAGCGGCAAUACCCUGCAACAGAGGAUUGAGCAUCA"}, "B22": {"name": "39051560_39051680_2368_3pUTR_ENSMUSG00000026753_ENSMUST00000028087|mouse|control|control (ssRNA)", "RNA": "GGGAGUUCUACAGUCCGACGAUCAUGAUAUACUUGUCCUUAUUAAUGGACAAUUAUAUAUCAAGAACUGAUCAUCACAACCCUUUAGAUAGUCAAGUUACAAACACAAAGCUGAAAUAUGGUAUGACAGACCUUCACAAGAGACAACAGAGGAUUGAGCAUCA"}}, "note": "The other results are listed elsewhere or left out.", "data": [{"molecular_target": "T1, UNK ZnF1-3 (human, UniProt Q9C0B0 31-174)", "T1 sequence": "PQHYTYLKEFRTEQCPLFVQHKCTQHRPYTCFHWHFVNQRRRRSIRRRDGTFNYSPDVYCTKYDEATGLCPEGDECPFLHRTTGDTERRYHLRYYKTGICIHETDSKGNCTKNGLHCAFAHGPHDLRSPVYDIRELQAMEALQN", "assay": "nsRBNS (natural sequence RNA bind-n-seq); RBNS binding buffer (assumed for nsRBNS): 25 mM Tris pH 7.5, 150 mM KCl, 3 mM MgCl2, 0.01% Triton X-100, 500 ug/ml BSA, 20 U/ml SUPERase-In, 4 C; UNK is unkempt and MSI1 is Musashi-1; names of the RNAs are library labels; protein concentration not given here; high values mean tight binding", "units": {"binding signal": "enrichment R"}, "values": [{"binder": "B1", "binding signal": 1.33}, {"binder": "B2", "binding signal": 0.693}, {"binder": "B3", "binding signal": 1.15}, {"binder": "B4", "binding signal": 0.719}, {"binder": "B5", "binding signal": 1.13}, {"binder": "B6", "binding signal": 0.948}, {"binder": "B7", "binding signal": 0.528}, {"binder": "B8", "binding signal": 1.47}, {"binder": "B9", "binding signal": 0.627}, {"binder": "B10", "binding signal": 1.53}, {"binder": "B11", "binding signal": 0.657}, {"binder": "B12", "binding signal": 0.995}, {"binder": "B13", "binding signal": 0.181}, {"binder": "B14", "binding signal": 1.2}, {"binder": "B15", "binding signal": 0.482}, {"binder": "B16", "binding signal": 0.932}, {"binder": "B17", "binding signal": 0.971}, {"binder": "B18", "binding signal": 0.598}, {"binder": "B19", "binding signal": 1.76}, {"binder": "B20", "binding signal": 1.78}, {"binder": "B21", "binding signal": 0.983}, {"binder": "B22", "binding signal": 0.831}]}]}
